Source: the supplement of paper PMC8728848
The list shows a part of the results.

Experiments:
Test in all cases: glycan array binding signal (z-score within array); higher = stronger binding
Settings in all cases: glycan notation: IUPAC condensed, linker removed
[1] = biological target: Gal(b1-4)GlcNAc(b1-3)GalNAc
Summary of the method: (§1)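 Glycan array data came from 3228 arrays in the Consortium for Functional Glycomics database, and only arrays with an available protein sequence were kept. Glycan names were put into IUPAC-condensed notation, and columns mapping to the same glycan were averaged. The binding signal is a within-array Z-score, averaged across arrays of one protein sequence run at different concentrations or buffers and across linkers. A negative Z-score can be read as non-binding.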

[2] = biological target: Gal(b1-4)GlcNAc(b1-3)[Fuc(a1-3)GlcNAc(b1-6)]Gal(b1-4)Glc
Summary of the method: as §1

[3] = biological target: Gal(b1-4)GlcNAc(b1-3)[Gal(b1-4)GlcNAc(b1-6)]Gal(b1-4)GlcNAc
Summary of the method: as §1

[4] = biological target: Gal(b1-4)GlcNAc(b1-3)[Gal(b1-4)GlcNAc(b1-6)]GalNAc
Summary of the method: as §1

[5] = biological target: Gal(b1-4)GlcNAc(b1-3)[GlcNAc(b1-6)]Gal(b1-4)GlcNAc
Summary of the method: as §1

[6] = biological target: Gal(b1-4)GlcNAc(b1-6)Gal(b1-4)GlcNAc
Summary of the method: as §1

[7] = biological target: Gal(b1-4)GlcNAc(b1-6)Gal(b1-4)GlcNAc(b1-6)GalNAc
Summary of the method: as §1

[8] = biological target: Gal(b1-4)GlcNAc(b1-6)GalNAc
Summary of the method: as §1

[9] = biological target: Gal(b1-4)GlcNAc(b1-6)[Gal(b1-3)]GalNAc
Summary of the method: as §1

[10] = biological target: Gal(b1-4)GlcNAc(b1-6)[Gal(b1-4)GlcNAc(b1-3)]GalNAc
Summary of the method: as §1

Gal(b1-4)GlcNAc6P = biological target: Gal(b1-4)GlcNAc6P
Summary of the method: as §1

Gal(b1-6)Gal = biological target: Gal(b1-6)Gal
Summary of the method: as §1

Gal3S(b1-3)GalNAc = biological target: Gal3S(b1-3)GalNAc
Summary of the method: as §1

Gal3S(b1-3)GlcNAc = biological target: Gal3S(b1-3)GlcNAc
Summary of the method: as §1

[11] = biological target: Gal3S(b1-3)[Fuc(a1-4)]GlcNAc
Summary of the method: as §1

Gal3S(b1-4)Glc = biological target: Gal3S(b1-4)Glc
Summary of the method: as §1

Gal3S(b1-4)Glc6S = biological target: Gal3S(b1-4)Glc6S
Summary of the method: as §1

Gal3S(b1-4)GlcNAc = biological target: Gal3S(b1-4)GlcNAc
Summary of the method: as §1

Gal3S(b1-4)GlcNAc6S = biological target: Gal3S(b1-4)GlcNAc6S
Summary of the method: as §1

[12] = biological target: Gal3S(b1-4)[Fuc(a1-3)]Glc6S
Summary of the method: as §1

[13] = biological target: Gal3S(b1-4)[Fuc(a1-3)]GlcNAc
Summary of the method: as §1

[14] = biological target: Gal3S(b1-4)[Fuc(a1-3)]GlcNAc6S
Summary of the method: as §1

Gal3S4S(b1-4)GlcNAc = biological target: Gal3S4S(b1-4)GlcNAc
Summary of the method: as §1

B1: ECA (Erythrina cristagalli), P83410 (protein)
chain: VETISFSFSEFEPGNDNLTLQGAALITQSGVLQLTKINQNGMPAWDSTGRTLYTKPVHMWDSTTGTVASFETRFSFSIEQPYTRPLPADGLVFFMGPTKSKPAQGYGYLGVFNNSKQDNSYQTLAVEFDTFSNPWDPPQVPHIGIDVNSIRSIKTQPFQLDNGQVANVVIKYDAPSKILHVVLVYPSSGAIYTIAEIVDVKQVLPDWVDVGLSGATGAQRDAAETHDVYSWSFQASLPE
- glycan array binding signal (z-score) [1]: 0.923
- glycan array binding signal (z-score) [2]: -0.179
- glycan array binding signal (z-score) [3]: -0.382
- glycan array binding signal (z-score) [4]: 5.59
- glycan array binding signal (z-score) [5]: -0.141
- glycan array binding signal (z-score) [6]: -0.152
- glycan array binding signal (z-score) [7]: 5.39
- glycan array binding signal (z-score) [8]: 0.935
- glycan array binding signal (z-score) [9]: 0.795
- glycan array binding signal (z-score) [10]: -0.363
- glycan array binding signal (z-score) (Gal(b1-4)GlcNAc6P): -0.214
- glycan array binding signal (z-score) (Gal(b1-6)Gal): 0.357
- glycan array binding signal (z-score) (Gal3S(b1-3)GalNAc): -0.141
- glycan array binding signal (z-score) (Gal3S(b1-3)GlcNAc): -0.186
- glycan array binding signal (z-score) [11]: -0.254
- glycan array binding signal (z-score) (Gal3S(b1-4)Glc): -0.158
- glycan array binding signal (z-score) (Gal3S(b1-4)Glc6S): 0.29
- glycan array binding signal (z-score) (Gal3S(b1-4)GlcNAc): -0.216
- glycan array binding signal (z-score) (Gal3S(b1-4)GlcNAc6S): -0.26
- glycan array binding signal (z-score) [12]: 0.936
- glycan array binding signal (z-score) [13]: -0.508
- glycan array binding signal (z-score) [14]: 0.644
- glycan array binding signal (z-score) (Gal3S4S(b1-4)GlcNAc): -0.265
